Consider 172 sequences from paper PMC6212790.

Some of the results follow. At the low end of the ranking the order means little.

In the experiment the target is T1, GST-Rok (full length) (UniProt O34857).
T1 sequence: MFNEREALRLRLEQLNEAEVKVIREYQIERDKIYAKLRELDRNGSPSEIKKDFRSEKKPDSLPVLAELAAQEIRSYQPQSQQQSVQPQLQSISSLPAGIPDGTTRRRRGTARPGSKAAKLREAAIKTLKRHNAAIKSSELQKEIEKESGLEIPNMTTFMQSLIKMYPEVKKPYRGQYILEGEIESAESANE
In words: protein binding microarray.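 Further: rank score from −0.5 (least bound) to 0.5 (best bound).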 To be noted: Rok is a gene silencer of Bacillus subtilis; high values mean tight binding; most listed sequences are background and not binding sites; double strand, one strand shown.
For ATCTAGAT, the binding signal came out at 0.322 E-score.

As for GCGGCAGA, the binding signal was -0.075 E-score.

Turning to ACCCCTAC, the binding signal was -0.266 E-score.

The sequence ACGTTTGG displayed a binding signal of 0.155 E-score.

For the sequence ATCCTTTA, the binding signal was -0.0018 E-score.

As for ATCAGTCC, the binding signal is -0.0111 E-score.

As to AGTGGGTA, the binding signal is 0.162 E-score.

Take ACAGCGCA: the binding signal turned out to be 0.0294 E-score.

AATACTAA returned a binding signal of 0.37 E-score.

In the case of ACTCCTCG, the binding signal is -0.112 E-score.

TAGCAGAA showed a binding signal of 0.127 E-score.

Take CCCCGTCC: the binding signal is -0.271 E-score.

As to CACTTGGA, the binding signal was -0.0489 E-score.

For the sequence AAGTAACC, the binding signal is -0.115 E-score.

Sequence AGCCATAC gave a binding signal of 0.0741 E-score.

Regarding GTGTAAAC, the binding signal stood at 0.0464 E-score.

In turn, AAATCCGG gave a binding signal of 0.0146 E-score.

For the sequence GGCACAGA, the binding signal worked out at 0.00898 E-score.

As for CCTGTGCC, the binding signal was -0.176 E-score.

As to AACACCAC, the binding signal was -0.0276 E-score.

As for GCGAAAAC, the binding signal worked out at 0.0869 E-score.

On to AATACATA, for which the binding signal stood at 0.373 E-score.

On to AGGACTTG, for which the binding signal is -0.0621 E-score.

As for GGATGGCA, the binding signal was -0.29 E-score.

Sequence AAATCTAA yielded a binding signal of 0.157 E-score.

On to AGATTTGA, for which the binding signal was found to be 0.14 E-score.

As to AATTCTAA, the binding signal worked out at 0.252 E-score.

In turn, ATAGTCAA had a binding signal of 0.175 E-score.

Consider AATATAGT, for which the binding signal came out at 0.359 E-score.

As for ACATTTCC, the binding signal was 0.133 E-score.

As for ACACCATA, the binding signal is -0.00553 E-score.

On to GAGCTTAA, for which the binding signal was -0.161 E-score.

CTTCTGTA: the binding signal is 0.143 E-score.

As to GGTGTAAC, the binding signal is -0.0245 E-score.

In turn, ACTATGCA yielded a binding signal of 0.171 E-score.

CTTGACCA: the binding signal is -0.185 E-score.

On to CATACAGA, for which the binding signal amounted to 0.0687 E-score.

The sequence CCTACACA showed a binding signal of 0.00393 E-score.

As for CCATAACA, the binding signal stood at 0.131 E-score.

With ATTTATAA, the binding signal was 0.333 E-score.

Take ATATCGGC: the binding signal was 0.137 E-score.

Regarding GGCAGGTA, the binding signal is -0.0441 E-score.

Turning to CAAGTACA, the binding signal stood at 0.165 E-score.

Turning to GGCGCAGA, the binding signal was -0.165 E-score.

In turn, CACATTAG had a binding signal of 0.11 E-score.

ATCGTTAG showed a binding signal of 0.0469 E-score.

AGATAGAG: the binding signal turned out to be 0.026 E-score.

Turning to GCGGACAA, the binding signal is -0.0929 E-score.

For AAGCGGGC, the binding signal is -0.296 E-score.

GAAGTTCC: the binding signal is -0.0907 E-score.

Turning to CAGGGATC, the binding signal was -0.297 E-score.

In the case of CACATTCG, the binding signal came out at 0.00372 E-score.

Consider GTAGTGAC, for which the binding signal is 0.0782 E-score.

For the sequence CATAAAGC, the binding signal was -0.123 E-score.

Consider GGAAGACC, for which the binding signal was -0.262 E-score.

In turn, ACCGGTAG came in with a binding signal of 0.374 E-score.

Regarding ACTAACAA, the binding signal was found to be 0.24 E-score.

Regarding GAAACCCC, the binding signal was -0.326 E-score.

CCCAGGTA had a binding signal of 0.0209 E-score.

Turning to GTCGCTCA, the binding signal was -0.101 E-score.

Consider CCAACCGG, for which the binding signal was -0.0809 E-score.

For the sequence ACGCGGAT, the binding signal is 0.0612 E-score.

Regarding ACAGGCAA, the binding signal is -0.106 E-score.

Consider GCAAGAGC, for which the binding signal was -0.0382 E-score.

Take GTCTGTCA: the binding signal is -0.184 E-score.

In the case of GTTAACTA, the binding signal came out at 0.359 E-score.

In turn, TGGTCTAA registered a binding signal of 0.0149 E-score.

For the sequence ACGCGCGT, the binding signal is -0.152 E-score.

In the case of GCAGGTCC, the binding signal is -0.35 E-score.

For the sequence TCATGGCA, the binding signal was -0.127 E-score.

Turning to AGTAGGCC, the binding signal is -0.103 E-score.

Regarding CAGTTGAG, the binding signal was -0.000936 E-score.

With ACTGATCG, the binding signal was 0.073 E-score.

Turning to ATTACTGG, the binding signal is -0.0684 E-score.

Take ACCACGAA: the binding signal was -0.0207 E-score.

ACCCGAGT: the binding signal was -0.176 E-score.

Consider GCGTGCAC, for which the binding signal was -0.18 E-score.

For the sequence CAGTCCGA, the binding signal is -0.0315 E-score.

GAACTATA: the binding signal amounted to 0.289 E-score.

For CTTTTCTC, the binding signal was -0.00403 E-score.

For CCATAGCG, the binding signal is -0.00718 E-score.

CTAAGTGC: the binding signal is -0.183 E-score.

As to CCATTCCC, the binding signal is -0.201 E-score.

Turning to AGTCCTAT, the binding signal turned out to be 0.0715 E-score.

The sequence ACGCTCAA gave a binding signal of 0.114 E-score.

CACTTAAC gave a binding signal of 0.0737 E-score.

In turn, CAGAGAAG registered a binding signal of 0.00425 E-score.

As for CCTTAGGC, the binding signal is -0.233 E-score.

Turning to TCTATGAA, the binding signal was determined as 0.074 E-score.

On to GGGCTACA, for which the binding signal is -0.0889 E-score.

Consider CGCTTTAA, for which the binding signal was -0.0788 E-score.

On to CAGTACGC, for which the binding signal came out at 0.0501 E-score.

Turning to GCATAGGC, the binding signal was -0.0277 E-score.

On to AAATTACA, for which the binding signal is 0.301 E-score.

Consider ACAGCTGT, for which the binding signal was -0.0251 E-score.

CCATTCTA: the binding signal came out at 0.326 E-score.

As for ACCATTCA, the binding signal stood at 0.0829 E-score.

On to ACGTATAT, for which the binding signal was 0.365 E-score.

Regarding GTGCACCA, the binding signal was -0.142 E-score.

In turn, CAACCAAG displayed a binding signal of 0.0888 E-score.

In the case of CCGGGCAC, the binding signal was -0.303 E-score.

Consider CCAACAAC, for which the binding signal is -0.112 E-score.

As for ATGTGTGC, the binding signal was -0.161 E-score.

As to ACCGCCAT, the binding signal is -0.14 E-score.

CACGTCAA came in with a binding signal of 0.00857 E-score.

Regarding ATTTGTCC, the binding signal is -0.0469 E-score.

Regarding ATACCACA, the binding signal is 0.208 E-score.

For ACTATGGG, the binding signal turned out to be 0.0124 E-score.

CCATGATA gave a binding signal of 0.0859 E-score.

For the sequence ATATATAC, the binding signal came to 0.396 E-score.

Take AATGAGGC: the binding signal is -0.221 E-score.

AGTTACCA gave a binding signal of 0.261 E-score.

In turn, ATTCGAGG showed a binding signal of 0.107 E-score.

For the sequence ATCACAGC, the binding signal came to 0.191 E-score.

Take TACTACAA: the binding signal is 0.357 E-score.

ATCACCTG: the binding signal is 0.197 E-score.

With ACGGCAAG, the binding signal is -0.0527 E-score.

For ATACGGCC, the binding signal is -0.21 E-score.

On to AAATCTCT, for which the binding signal is 0.1 E-score.

The sequence CTGTAGAA had a binding signal of 0.345 E-score.

As to GCTCTCTA, the binding signal is -0.154 E-score.

Sequence CTGGCTCA gave a binding signal of 0.0475 E-score.

For the sequence ATTATTGA, the binding signal amounted to 0.182 E-score.

GGCGTCGA: the binding signal was -0.283 E-score.

In turn, ATAATATG displayed a binding signal of 0.232 E-score.

With AGCAAAAC, the binding signal is -0.0428 E-score.

CTATCAAA displayed a binding signal of 0.279 E-score.

The sequence ATCTCTCA had a binding signal of 0.128 E-score.

As to CGGCTATC, the binding signal is -0.0522 E-score.

Turning to GACATACA, the binding signal is 0.0575 E-score.

With GAGTGCGC, the binding signal is -0.287 E-score.

For the sequence AATGTCCC, the binding signal is -0.237 E-score.

For the sequence GAGATCCA, the binding signal is -0.000368 E-score.

AGCTAACC registered a binding signal of 0.0976 E-score.

Take ACGGGGCA: the binding signal is -0.116 E-score.

Take CAGCGACC: the binding signal was -0.155 E-score.

CTACCTTA came in with a binding signal of 0.264 E-score.

In the case of CCAGCGGC, the binding signal was -0.305 E-score.

GCAAGCGC: the binding signal is -0.158 E-score.

Regarding ATGGTGGG, the binding signal is -0.292 E-score.

Sequence CAGTTAAA had a binding signal of 0.274 E-score.

Take CAGAGTGA: the binding signal was -0.117 E-score.

On to CACTTGAG, for which the binding signal turned out to be 0.0113 E-score.

For the sequence GGACCTCA, the binding signal was -0.284 E-score.

Sequence GAAGAATC had a binding signal of 0.114 E-score.

As to GCTTCGTA, the binding signal was -0.143 E-score.

Turning to CACTGCCA, the binding signal was -0.187 E-score.

Sequence ACGAATAT returned a binding signal of 0.232 E-score.

As for GATATCCA, the binding signal is -0.00483 E-score.

For the sequence GCGCCGCA, the binding signal was -0.27 E-score.

In the case of GGTTTAGA, the binding signal is 0.22 E-score.

For the sequence AGGAGGCA, the binding signal is -0.296 E-score.

As for ACGTGTGC, the binding signal was -0.0154 E-score.

On to ACTGGGAA, for which the binding signal was -0.0286 E-score.

As to ATTCGAAT, the binding signal amounted to 0.342 E-score.

The sequence CTAGCAGA returned a binding signal of 0.128 E-score.

As to ACGAGGAT, the binding signal was -0.0373 E-score.

In turn, ATCTGAAT returned a binding signal of 0.0474 E-score.

Take GTGGCCGA: the binding signal is -0.23 E-score.

In the case of ACATCAAT, the binding signal is 0.137 E-score.

As to AGGTGGAT, the binding signal is -0.181 E-score.

Sequence ATTATTCA gave a binding signal of 0.0606 E-score.

Take ATGGAAGA: the binding signal was -0.102 E-score.

As for ACTATCAA, the binding signal came out at 0.337 E-score.

As to AAGTGACC, the binding signal is -0.136 E-score.

For GAGGTACA, the binding signal was determined as 0.159 E-score.

With CCCGAATC, the binding signal was -0.113 E-score.

In the case of GTATAACA, the binding signal turned out to be 0.208 E-score.

As for ACCCACGC, the binding signal is -0.201 E-score.

As to ACAATGGA, the binding signal is -0.0288 E-score.

AGCTAGGG: the binding signal is -0.15 E-score.

AAAATACA gave a binding signal of 0.344 E-score.
